# Results as given in PubChem BioAssay AID485344 (National Center for Advancing Translational Sciences (NCATS), 2010).
# Out of some 340,000 compounds screened, about 6,900 (2%) were called active. No stated cut-off is given here; in the data, active means inhibition above about 30%; inactive means below that, where a call was filed. This is a selection; strong and weak results do not stand in their true shares. Where no call is shown, the source filed none.
# Molecular target: D(2) dopamine receptor (Homo sapiens) (UniProt P14416)
# Assay: HTS Assay for Allosteric Antagonists of the Human D2 Dopamine Receptor: Primary Screen for Antagonists; further: 0% is about no effect
# Conditions: HEK293 TREx D2 cells, calcium flux, dopamine EC80; at 10 µM; stronger effect = higher value
# Summary of the method: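 HEK293 T-REx D2 cells, tet-induced, calcium dye no-wash. Cpd pintool add, 180 s kinetic, then EC80 DA, 180 s kinetic. Ca flux read.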
# Chain of UniProt P14416 (P14416 whole entry, looked up): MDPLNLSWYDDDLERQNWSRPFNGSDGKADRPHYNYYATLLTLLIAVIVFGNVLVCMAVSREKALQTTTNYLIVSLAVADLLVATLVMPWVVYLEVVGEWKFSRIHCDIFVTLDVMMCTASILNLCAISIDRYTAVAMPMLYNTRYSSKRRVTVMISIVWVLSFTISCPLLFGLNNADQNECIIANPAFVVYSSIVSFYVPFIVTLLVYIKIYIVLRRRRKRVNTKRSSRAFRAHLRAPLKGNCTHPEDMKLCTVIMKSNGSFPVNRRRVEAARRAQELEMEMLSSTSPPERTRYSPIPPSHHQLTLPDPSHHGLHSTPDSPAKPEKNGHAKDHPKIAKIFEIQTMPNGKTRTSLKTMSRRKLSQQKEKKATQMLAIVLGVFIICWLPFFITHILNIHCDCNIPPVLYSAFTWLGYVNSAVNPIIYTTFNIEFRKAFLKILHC
row,SMILES,inhibition
1,O=C(OCc1cc(=O)n2nc(C3CC3)sc2n1)c1ccc(F)cc1,15.6%
2,CCOc1ccccc1NC(=O)Cn1cnc2onc(-c3ccc(F)cc3)c2c1=O,1.34%
3,COc1ccc(-n2c(=O)c3ccc(C(=O)NCc4ccc(C)cc4)cc3n(CC(=O)Nc3ccc(F)cc3)c2=O)cc1,-10%
4,CC(C)CC(=O)Nc1ccc(C(=O)OCc2cc(=O)n3nc(C(C)C)sc3n2)cc1,9.72%
5,COc1cccc(C(=O)Nc2cc(-c3ccccc3)no2)c1,14.3%
6,CCC1CCCCN1CCCNC(=O)CS(=O)Cc1nc(-c2ccc(OC)c(OC)c2)oc1C (centres undefined),active: 35.6%
7,COc1ccc(/C=C/c2nc(C#N)c(NCCc3ccc(OC)c(OC)c3)o2)cc1OC,-10.5%
8,COc1ccc(C(=O)N2CC(=O)Nc3ccc(F)cc3C2c2ccc(F)cc2)c(OC)c1 (centres undefined),2.79%
9,CCOC(=O)c1cc(C)n(CC2CCC(C(=O)Nc3ccc(Cl)cc3)CC2)c1C (centres undefined),2.6%
10,O=C(c1ccco1)N1CCN(Cc2ccccc2Br)CC1,active: 78.5%
11,CCC1CCc2nc3sc(C(=O)Nc4ccc(F)cc4F)c(N)c3cc2C1 (centres undefined),-4.87%
12,CC(=O)Nc1cccc(C(=O)NCc2ccc3c(c2)CCN3C(=O)c2ccccc2)c1,-11.3%
13,CCOc1ccc(CCNC(=O)Cn2nnc(-c3ccccc3)n2)cc1OCC,18.2%
14,Cc1ccc2cccc(NC(=O)c3ccc(-c4cccc([N+](=O)[O-])c4)o3)c2n1,-20.5%
15,COc1cc(OC)c(NC(=O)NC(C)c2c(-n3cccc3)sc(C)c2C)cc1Cl (centres undefined),19.3%
16,CCCCNC(=O)CSc1nc2nc(C)c(Cc3ccccc3C)c(C)n2n1,-3.22%
17,CCOc1ccc(NS(=O)(=O)c2cc(Br)cc3c2N(C(=O)C2CC2)CC3)cc1,-8.12%
18,COC(C[C@H]1O[C@@H]1[C@@H](O)[C@H](C)OCc1ccccc1)OC,active: 35.9%
19,Cc1ccccc1-c1nc(CS(=O)(=O)CC(=O)N2CCN(c3ccccc3)CC2)c(C)o1,27%
20,COc1ccccc1N1CCN(CCC(=O)Nc2cccc(Cl)c2)CC1,active: 96.2%
21,CCCCNC(=O)CCn1c(=O)c2ccccc2n(Cc2ccccc2C#N)c1=O,9.36%
22,S=C1SCN(Cc2ccccn2)CN1Cc1ccco1,active: 36.1%
23,CCOc1ccc(CC(=O)Nc2c(C(=O)c3ccc(C)cc3)oc3ccccc23)cc1OCC,-19.3%
24,CCc1ccccc1NC(=O)c1ccc2nc(CCc3ccccc3)oc2c1,-13.4%
25,Cc1ccc(C(=O)COC(=O)C(CC(C)C)NC(=O)C2CCC(C)CC2)cc1 (centres undefined),-13.3%

row,SMILES,inhibition
1,O=C(CCCN1Cc2ccccc2C1)c1ccc(F)cc1,active: 79.5%
2,O=C(Cc1cccc([N+](=O)[O-])c1)NCc1nc2cccnc2n1Cc1ccc(F)cc1,-3.81%
3,CC(=O)c1cccc(NC(=O)C2CCCN(c3nnc(-n4cccc4)s3)C2)c1 (centres undefined),13.1%
4,COc1cc(C2N=C(N)Nc3nc4ccccc4n32)ccc1OCCC(C)C (centres undefined),12.8%
5,O=C(COc1ccc(S(=O)(=O)NC2CCCCC2)cc1)Nc1ccc(C(F)(F)F)cc1,7.78%
6,Cc1ccc[n+](CC(=O)Nc2cccc([N+](=O)[O-])c2)c1,active: 31.6%
7,CCOc1cccc(CC(=O)N2CCc3c([nH]c4ccccc34)C2c2ccc(F)cc2)c1OCC (centres undefined),6.22%
8,CCOc1ccc(N(CC)S(=O)(=O)N2CCCC(C(=O)NCc3ccccc3Cl)C2)cc1 (centres undefined),-12.5%
9,O=S(=O)(c1ccccc1)n1nc(-c2ccccc2)nc1NCc1ccc(Cl)cc1,8.12%
10,Cc1ccc(CNC(=O)CSCc2ccc(F)cc2)cc1,4.7%
11,CC(=O)Nc1ccc(NC(=O)CCNS(=O)(=O)c2cccc3nsnc23)cc1,2.32%
12,CCc1ccc2oc(-c3cccc(NC(=O)c4ccc(N5CCC(C)CC5)c([N+](=O)[O-])c4)c3)nc2c1,-14.2%
13,Cc1ccccc1CNC(=O)Cn1ncn2nc(-c3cccs3)cc2c1=O,5.55%
14,CCOc1ccccc1CNC(=O)c1cc2cc(S(=O)(=O)N3CCCCC3)ccc2n1C,3.3%
15,COc1cccc(NC(=O)Cn2cc(S(=O)(=O)N3CCCC3)c(S(=O)(=O)N3CCCC3)c2)c1,2.5%
16,Cc1cccc(CSc2cn(CC(=O)N3CCCC3)c3ccccc23)c1,-17.6%
17,CCC(Oc1ccccc1)C(=O)Nc1ccc2oc(-c3ccc(OC)cc3)nc2c1 (centres undefined),-4.6%
18,CCc1cccc(C)c1NC(=O)CSc1nc2ccccc2nc1N1CCOCC1,4.31%
19,COc1ccc(Cn2c(SCc3ccc(C(=O)NCc4cccs4)cc3)nc3cccnc32)cc1,-12%
20,COc1ccccc1CN1C(=O)CN(C2CCCCCC2)C(=O)C1c1ccc(C)cc1 (centres undefined),-11.8%
21,Cc1cc(F)ccc1NS(=O)(=O)c1c(C)nc2scc(C)n2c1=O,-15.5%
22,CSc1ccc(CCNC(=O)CN2C(=O)c3cccnc3Oc3ccc(C)cc32)cc1,-5.12%
23,Cc1ccc2c(=O)cc(C(=O)N(Cc3ccc(N(C)C)cc3)C3CCS(=O)(=O)C3)oc2c1 (centres undefined),-0.308%
24,CCCN1CCN(CCCNC(=O)Cn2nc(CC)n3c(cc4occc43)c2=O)CC1,16%
